# Measurements from article PMC6502810.
# Results are given in words; binding and its absence hold for the method and conditions named. For part of these data: Binding seen in cells or lysates may run through a third protein. Some results given as binding are weak or reduced against the parent protein; the word gives no strength.
# Columns and labels:
# recombinant hnRNPK = recombinant hnRNPK (UniProt P61978); assay: pull-down; RNA pulldown assay (RPA): biotin labeled RUNX1 mRNA on M-280 Dynabeads, recombinant CBFB in the absence or presence of recombinant hnRNPK; western blotting; both purified
# [1] = molecular target: CBFB (core binding factor subunit beta), endogenous (human (endogenous in MCF10A)) (UniProt Q13951); assay: co-IP; endogenous co-IP of CBFB and hnRNPK, nuclear fraction (Supplementary Fig. 4d)
# [2] = molecular target: CBFB (core binding factor subunit beta), endogenous (human (endogenous in MCF10A)) (UniProt Q13951); assay: co-IP; endogenous co-IP of CBFB and hnRNPK, cytoplasmic fraction (Supplementary Fig. 4d)
# [3] = molecular target: CBFB (core binding factor subunit beta), endogenous (human (endogenous in MCF10A)) (UniProt Q13951); assay: co-IP; endogenous co-IP followed by immunoblot; 10 µg/ml RNase A added in the co-IP lysate (Fig. 6b)
# [4] = molecular target: C-terminally FLAG tagged CBFB (human) (UniProt Q13951); assay: co-IP; FLAG IP from cells expressing FLAG tagged CBFB followed by immunoblot; 10 µg/ml RNase A in the lysate
# [5] = molecular target: N-terminally FLAG tagged CBFB (human) (UniProt Q13951); assay: as above
binding (recombinant hnRNPK),binding [2],binding [3],binding [4],binding [5],Substance,binding [1]
binds,–,–,–,–,recombinant CBFB (from UniProt Q13951 1-182),–
–,binds,binds,binds,binds,hnRNPK (from UniProt P61978 1-463),no binding (condition: in the nuclear fraction)
